According to publication PMC8426278 (iScience, 2021):

T1: GST-G1NC_(short) (GST-fused truncated cytosolic domain of rat GIRK1, a.a. 41-63, 190-371) (rat, UniProt P63251)
T1 chain: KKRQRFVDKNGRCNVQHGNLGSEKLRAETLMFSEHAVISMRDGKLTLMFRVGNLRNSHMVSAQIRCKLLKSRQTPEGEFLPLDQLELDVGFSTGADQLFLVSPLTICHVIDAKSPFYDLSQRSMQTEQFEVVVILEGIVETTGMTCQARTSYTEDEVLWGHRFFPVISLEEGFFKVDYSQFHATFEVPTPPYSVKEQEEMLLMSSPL


Molecular target: T1, GST-G1NC_(short) (GST-fused truncated …)
Experiment: pull-down

| Binder | reduction of binding relative to wt Gβγ [%] |
| --- | --- |
| Gβ1(I80N)γ2 (bovine Gβ1 I80N co-translated with bovine Gγ2) (complex) chain 1: not shown chain 2: not shown | ~50 |
| Gβ1(I80T)γ2 (bovine Gβ1 I80T co-translated with bovine Gγ2) (complex) chain 1: not shown chain 2: not shown | ~50 |
| Gβ1(K78R)γ2 (bovine Gβ1 K78R co-translated with bovine Gγ2) (complex) chain 1: not shown chain 2: not shown | ~50 |
